Test results taken from article PMC9911399, “Two distinct binding modes provide the RNA-binding protein RbFox with extraordinary sequence specificity”.
Residue numbers refer to the chain shown, from its start. Some of the results follow.

B1: CUAUAAG (DNA:RNA)
RNA: GGGAGACCGGAAUUCAGAUUGUCCCUAUAAGUUAAAUCCCGUCGUAGCCACCA
DNA 1: CAATCTGAATTCCGGTCTCCC
DNA 2: TGGTGGCTACGACGGGATT
B2: CAUGAUA (DNA:RNA)
RNA: B1 RNA with U26A, A27U, U28G, A30U, G31A
DNA 1: CAATCTGAATTCCGGTCTCCC
DNA 2: TGGTGGCTACGACGGGATT
B3: CAAUCCU (DNA:RNA)
RNA: B1 RNA with U26A, A29C, A30C, G31U
DNA 1: CAATCTGAATTCCGGTCTCCC
DNA 2: TGGTGGCTACGACGGGATT
B4: CACUGAA (DNA:RNA)
RNA: B1 RNA with U26A, A27C, A29G, G31A
DNA 1: CAATCTGAATTCCGGTCTCCC
DNA 2: TGGTGGCTACGACGGGATT
B5: GAAGAAC (DNA:RNA)
RNA: B1 RNA with C25G, U26A, U28G, G31C
DNA 1: CAATCTGAATTCCGGTCTCCC
DNA 2: TGGTGGCTACGACGGGATT
B6: GGGGUCC (DNA:RNA)
RNA: GGGAGACCGGAAUUCAGAUUGUCCGGGGUCCUUAAAUCCCGUCGUAGCCACCA
DNA 1: CAATCTGAATTCCGGTCTCCC
DNA 2: TGGTGGCTACGACGGGATT
B7: AACCGUG (DNA:RNA)
RNA: B1 RNA with C25A, U26A, A27C, U28C, A29G, A30U
DNA 1: CAATCTGAATTCCGGTCTCCC
DNA 2: TGGTGGCTACGACGGGATT
B8: GAAUGAG (DNA:RNA)
RNA: B1 RNA with C25G, U26A, A29G
DNA 1: CAATCTGAATTCCGGTCTCCC
DNA 2: TGGTGGCTACGACGGGATT
B9: GUGUGGG (DNA:RNA)
RNA: B1 RNA with C25G, A27G, A29G, A30G
DNA 1: CAATCTGAATTCCGGTCTCCC
DNA 2: TGGTGGCTACGACGGGATT
B10: GAGUCUC (DNA:RNA)
RNA: B6 RNA with G26A, G28U, U29C, C30U
DNA 1: CAATCTGAATTCCGGTCTCCC
DNA 2: TGGTGGCTACGACGGGATT
B11: GCACGAG (DNA:RNA)
RNA: B1 RNA with C25G, U26C, U28C, A29G
DNA 1: CAATCTGAATTCCGGTCTCCC
DNA 2: TGGTGGCTACGACGGGATT
B12: GCUGGGG (DNA:RNA)
RNA: B6 RNA with G26C, G27U, U29G, C30G, C31G
DNA 1: CAATCTGAATTCCGGTCTCCC
DNA 2: TGGTGGCTACGACGGGATT
B13: CACGCAG (DNA:RNA)
RNA: B1 RNA with U26A, A27C, U28G, A29C
DNA 1: CAATCTGAATTCCGGTCTCCC
DNA 2: TGGTGGCTACGACGGGATT
B14: UUUUCUC (DNA:RNA)
RNA: B1 RNA with C25U, A27U, A29C, A30U, G31C
DNA 1: CAATCTGAATTCCGGTCTCCC
DNA 2: TGGTGGCTACGACGGGATT
B15: CACCUGA (DNA:RNA)
RNA: B1 RNA with U26A, A27C, U28C, A29U, A30G, G31A
DNA 1: CAATCTGAATTCCGGTCTCCC
DNA 2: TGGTGGCTACGACGGGATT
B16: UACGCCG (DNA:RNA)
RNA: B6 RNA with G25U, G26A, G27C, U29C, C31G
DNA 1: CAATCTGAATTCCGGTCTCCC
DNA 2: TGGTGGCTACGACGGGATT
B17: UUCUCCU (DNA:RNA)
RNA: B1 RNA with C25U, A27C, A29C, A30C, G31U
DNA 1: CAATCTGAATTCCGGTCTCCC
DNA 2: TGGTGGCTACGACGGGATT
B18: GCGGACU (DNA:RNA)
RNA: B6 RNA with G26C, U29A, C31U
DNA 1: CAATCTGAATTCCGGTCTCCC
DNA 2: TGGTGGCTACGACGGGATT
B19: AAACGCA (DNA:RNA)
RNA: B1 RNA with C25A, U26A, U28C, A29G, A30C, G31A
DNA 1: CAATCTGAATTCCGGTCTCCC
DNA 2: TGGTGGCTACGACGGGATT
B20: CGGUUUU (DNA:RNA)
RNA: B6 RNA with G25C, G28U, C30U, C31U
DNA 1: CAATCTGAATTCCGGTCTCCC
DNA 2: TGGTGGCTACGACGGGATT
B21: AGGUAGU (DNA:RNA)
RNA: B1 RNA with C25A, U26G, A27G, A30G, G31U
DNA 1: CAATCTGAATTCCGGTCTCCC
DNA 2: TGGTGGCTACGACGGGATT
B22: AUCAGUG (DNA:RNA)
RNA: B1 RNA with C25A, A27C, U28A, A29G, A30U
DNA 1: CAATCTGAATTCCGGTCTCCC
DNA 2: TGGTGGCTACGACGGGATT
B23: GAUCGAC (DNA:RNA)
RNA: B6 RNA with G26A, G27U, G28C, U29G, C30A
DNA 1: CAATCTGAATTCCGGTCTCCC
DNA 2: TGGTGGCTACGACGGGATT
B24: UAGACCC (DNA:RNA)
RNA: B6 RNA with G25U, G26A, G28A, U29C
DNA 1: CAATCTGAATTCCGGTCTCCC
DNA 2: TGGTGGCTACGACGGGATT
B25: UGAGUCA (DNA:RNA)
RNA: B6 RNA with G25U, G27A, C31A
DNA 1: CAATCTGAATTCCGGTCTCCC
DNA 2: TGGTGGCTACGACGGGATT
B26: CUGCGUU (DNA:RNA)
RNA: B1 RNA with A27G, U28C, A29G, A30U, G31U
DNA 1: CAATCTGAATTCCGGTCTCCC
DNA 2: TGGTGGCTACGACGGGATT
B27: AUGAUUC (DNA:RNA)
RNA: B6 RNA with G25A, G26U, G28A, C30U
DNA 1: CAATCTGAATTCCGGTCTCCC
DNA 2: TGGTGGCTACGACGGGATT
B28: CUGAAUA (DNA:RNA)
RNA: B1 RNA with A27G, U28A, A30U, G31A
DNA 1: CAATCTGAATTCCGGTCTCCC
DNA 2: TGGTGGCTACGACGGGATT
B29: AAUAGCG (DNA:RNA)
RNA: B1 RNA with C25A, U26A, A27U, U28A, A29G, A30C
DNA 1: CAATCTGAATTCCGGTCTCCC
DNA 2: TGGTGGCTACGACGGGATT
B30: CUGGUCA (DNA:RNA)
RNA: B6 RNA with G25C, G26U, C31A
DNA 1: CAATCTGAATTCCGGTCTCCC
DNA 2: TGGTGGCTACGACGGGATT
B31: CUCAAAC (DNA:RNA)
RNA: B1 RNA with A27C, U28A, G31C
DNA 1: CAATCTGAATTCCGGTCTCCC
DNA 2: TGGTGGCTACGACGGGATT

biological target: T1, RBFOX1 RRM RbFoxmut (Fox-RRM*) (Homo sapiens, UniProt Q9NWB1 109-208, R118D;E147R;N151S;E152T); assay: EMSA; HiTS-Eq, 1 nM pool, 10 min; buffer printed only for the single-RNA assays: 10 mM Tris pH 7.5, 150 mM NaCl, 3.4 mM EDTA, 0.001% NP-40, 30 C; details: tags: His6 N-terminal (pET28a); label: 5' 32P
T1 sequence: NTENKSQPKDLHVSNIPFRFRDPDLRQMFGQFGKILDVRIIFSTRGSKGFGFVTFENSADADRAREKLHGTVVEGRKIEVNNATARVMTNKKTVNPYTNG
How it was run: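 A pool of RNA with 7 randomized nucleotides, 5′-radiolabelled and with DNA-annealed flanks, was equilibrated at 1 nM for 10 min in 50 µL with purified RbFox RRM, wild type or mutant, across increasing protein concentrations. Free RNA was separated by 8% native PAGE, excised, reverse-transcribed, barcoded by PCR and sequenced. Relative association constants were obtained from read-count changes of each RNA species versus the control reaction and normalised to the cognate motif.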

Binder | binding signal
B1 | 0.0991 KA relative to UGCAUGU
B2 | 0.136 KA relative to UGCAUGU
B3 | 0.087 KA relative to UGCAUGU
B4 | 0.0869 KA relative to UGCAUGU
B5 | 0.0735 KA relative to UGCAUGU
B6 | 0.127 KA relative to UGCAUGU
B7 | 0.109 KA relative to UGCAUGU
B8 | 0.983 KA relative to UGCAUGU
B9 | 0.102 KA relative to UGCAUGU
B10 | 0.0746 KA relative to UGCAUGU
B11 | 0.405 KA relative to UGCAUGU
B12 | 0.0954 KA relative to UGCAUGU
B13 | 0.103 KA relative to UGCAUGU
B14 | 0.0443 KA relative to UGCAUGU
B15 | 0.0878 KA relative to UGCAUGU
B16 | 0.0796 KA relative to UGCAUGU

Binder | binding signal
B17 | 0.0487 KA relative to UGCAUGU
B18 | 0.0813 KA relative to UGCAUGU
B19 | 0.117 KA relative to UGCAUGU
B20 | 0.0605 KA relative to UGCAUGU
B21 | 0.118 KA relative to UGCAUGU
B22 | 0.17 KA relative to UGCAUGU
B23 | 0.0797 KA relative to UGCAUGU
B24 | 0.0507 KA relative to UGCAUGU
B25 | 0.151 KA relative to UGCAUGU
B26 | 0.0925 KA relative to UGCAUGU
B27 | 0.139 KA relative to UGCAUGU
B28 | 0.0906 KA relative to UGCAUGU
B29 | 0.104 KA relative to UGCAUGU
B30 | 0.102 KA relative to UGCAUGU
B31 | 0.0681 KA relative to UGCAUGU
